Assay results as given in a collection of fitness landscapes (doi:10.1126/science.1257360).
This is one part of the list.

B1: PhoQ; a variant is named by its letters at X, in order, P23837 (parent)
chain: MKKLLRLFFPLSLRVRFLLATAAVVLVLSLAYGMVALIGYSVSFDKTTFRLLRGESNLFYTLAKWENNKLHVELPENIDKQSPTMTLIYDENGQLLWAQRDVPWLMKMIQPDWLKSNGFHEIEADVNDTSLLLSGDHSIQQQLQEVREDDDDAEMTHSVAVNVYPATSRMPKLTIVVVDTIPVELKSSYMVWSWFIYVLSANLLLVIPLLWVAAWWSLRPIEALAKEVRELEEHNRELLNPATTRELTSLVRNLNRLLKSERERYDKYRTTLTDLTHSLKTPLXXLQXXLRSLRSEKMSVSDAEPVMLEQISRISQQIGYYLHRASMRGGTLLSRELHPVAPLLDNLTSALNKVYQRKGVNISLDISPEISFVGEQNDFVEVMGNVLDNACKYCLEFVEISARQTDEHLYIVVEDDGPGIPLSKREVIFDRGQRVDTLRPGQGVGLAVAREITEQYEGKIVAGESMLGGARMEVIFGRQHSAPKDE

Variants of: B1
Experiment: enrichment ratio after two sorts for PhoP signalling (ratio (wild type AVST 3.29)); higher = more functional
Settings: with PhoP (E. coli)

Going from ISML to TSCH, the enrichment ratio rises from 10.5 to 15.8.

EDVL and SIYG cannot be ordered by enrichment ratio: no more than 0.25 for the first, no more than 0.25 for the second.

HYPN and AKPS cannot be ordered by enrichment ratio: no more than 0.25 for the first, no more than 0.25 for the second.

RYYD and LDFN cannot be ordered by enrichment ratio: no more than 0.25 for the first, no more than 0.25 for the second.

KDTI and ELAF cannot be ordered by enrichment ratio: no more than 0.25 for the first, no more than 0.25 for the second.

KVPN and PLHF cannot be ordered by enrichment ratio: no more than 0.25 for the first, no more than 0.25 for the second.

QIND and GRYC cannot be ordered by enrichment ratio: no more than 0.25 for the first, no more than 0.25 for the second.

RGVR and PMVV cannot be ordered by enrichment ratio: no more than 0.25 for the first, no more than 0.25 for the second.

SFPC and MHDC cannot be ordered by enrichment ratio: no more than 0.25 for the first, no more than 0.25 for the second.

First: SQVM
Second: PNQN
The enrichment ratio of the first is higher: 19.6 for the first, no more than 0.25 for the second.

First: TMQA
Second: WRIV
The enrichment ratio of the first is higher: 4.88 for the first, no more than 0.25 for the second.

YWRF and YPGM cannot be ordered by enrichment ratio: no more than 0.25 for the first, no more than 0.25 for the second.

FGSY and DFKM cannot be ordered by enrichment ratio: no more than 0.25 for the first, no more than 0.25 for the second.

YQRS and HPHF cannot be ordered by enrichment ratio: no more than 0.25 for the first, no more than 0.25 for the second.

AEQH and PMMC cannot be ordered by enrichment ratio: no more than 0.25 for the first, no more than 0.25 for the second.

SGKA and SMPS cannot be ordered by enrichment ratio: no more than 0.25 for the first, no more than 0.25 for the second.

YSIC and RLHF cannot be ordered by enrichment ratio: no more than 0.25 for the first, no more than 0.25 for the second.

FFYW and KLQS cannot be ordered by enrichment ratio: no more than 0.25 for the first, no more than 0.25 for the second.

Compared with VTVE, TSMF is higher in enrichment ratio: no more than 0.25 for the first, 7.18 for the second.

Going from AQYN to YIMI, the enrichment ratio rises from no more than 0.25 to 0.259.

GRYF and HILR cannot be ordered by enrichment ratio: no more than 0.25 for the first, no more than 0.25 for the second.

Compared with TAVC, GPKH is lower in enrichment ratio: 1.35 for the first, no more than 0.25 for the second.

INTK and PHAI cannot be ordered by enrichment ratio: no more than 0.25 for the first, no more than 0.25 for the second.

SNKY and FWSH cannot be ordered by enrichment ratio: no more than 0.25 for the first, no more than 0.25 for the second.

SVWN and GPCH cannot be ordered by enrichment ratio: no more than 0.25 for the first, no more than 0.25 for the second.

EVEA and DAQT cannot be ordered by enrichment ratio: no more than 0.25 for the first, no more than 0.25 for the second.

First: VITL
Second: DWNS
The enrichment ratio of the first is higher: 0.485 for the first, no more than 0.25 for the second.

LTDG and WLMH cannot be ordered by enrichment ratio: no more than 0.25 for the first, no more than 0.25 for the second.

LDMG and YQQE cannot be ordered by enrichment ratio: no more than 0.25 for the first, no more than 0.25 for the second.

EEGC and FCWN cannot be ordered by enrichment ratio: no more than 0.25 for the first, no more than 0.25 for the second.

LKST and VLVS cannot be ordered by enrichment ratio: no more than 0.25 for the first, no more than 0.25 for the second.

YPRW and LCVE cannot be ordered by enrichment ratio: no more than 0.25 for the first, no more than 0.25 for the second.

Compared with LDIS, YLLM is higher in enrichment ratio: no more than 0.25 for the first, 0.305 for the second.

PEDF and LQTP cannot be ordered by enrichment ratio: no more than 0.25 for the first, no more than 0.25 for the second.

EDYL and FETQ cannot be ordered by enrichment ratio: no more than 0.25 for the first, no more than 0.25 for the second.

EQSE and VQPR cannot be ordered by enrichment ratio: no more than 0.25 for the first, no more than 0.25 for the second.

NQKA and YWTG cannot be ordered by enrichment ratio: no more than 0.25 for the first, no more than 0.25 for the second.

QHWD and VWNL cannot be ordered by enrichment ratio: no more than 0.25 for the first, no more than 0.25 for the second.

KKRG and IVGS cannot be ordered by enrichment ratio: no more than 0.25 for the first, no more than 0.25 for the second.

QGMY and IHNW cannot be ordered by enrichment ratio: no more than 0.25 for the first, no more than 0.25 for the second.

Going from FKNC to MSAW, the enrichment ratio rises from no more than 0.25 to 0.888.

LHNN and NQHL cannot be ordered by enrichment ratio: no more than 0.25 for the first, no more than 0.25 for the second.

WDEE and YYRS cannot be ordered by enrichment ratio: no more than 0.25 for the first, no more than 0.25 for the second.

QRDP and MERQ cannot be ordered by enrichment ratio: no more than 0.25 for the first, no more than 0.25 for the second.

WAMC and LTMQ cannot be ordered by enrichment ratio: no more than 0.25 for the first, no more than 0.25 for the second.

RGIF and RQFE cannot be ordered by enrichment ratio: no more than 0.25 for the first, no more than 0.25 for the second.

Compared with AGIQ, KLNI is lower in enrichment ratio: 3.29 for the first, no more than 0.25 for the second.

AFFQ and RDHE cannot be ordered by enrichment ratio: no more than 0.25 for the first, no more than 0.25 for the second.

PDKR and WNWP cannot be ordered by enrichment ratio: no more than 0.25 for the first, no more than 0.25 for the second.

VCTI and PSNY cannot be ordered by enrichment ratio: no more than 0.25 for the first, no more than 0.25 for the second.

WSPQ and PHYV cannot be ordered by enrichment ratio: no more than 0.25 for the first, no more than 0.25 for the second.

DGYS and WQVT cannot be ordered by enrichment ratio: no more than 0.25 for the first, no more than 0.25 for the second.

First: MLCA
Second: CALL
The enrichment ratio of the first is lower: no more than 0.25 for the first, 1.78 for the second.

Compared with AQIN, AMCN is higher in enrichment ratio: no more than 0.25 for the first, 3.93 for the second.

RHRY and IFDK cannot be ordered by enrichment ratio: no more than 0.25 for the first, no more than 0.25 for the second.

VLTG and WENE cannot be ordered by enrichment ratio: no more than 0.25 for the first, no more than 0.25 for the second.

SGDS and IQRS cannot be ordered by enrichment ratio: no more than 0.25 for the first, no more than 0.25 for the second.

HIFR and MQWH cannot be ordered by enrichment ratio: no more than 0.25 for the first, no more than 0.25 for the second.

GLFS and FRLT cannot be ordered by enrichment ratio: no more than 0.25 for the first, no more than 0.25 for the second.

VMCR and QYNQ cannot be ordered by enrichment ratio: no more than 0.25 for the first, no more than 0.25 for the second.

RNYL and LGKW cannot be ordered by enrichment ratio: no more than 0.25 for the first, no more than 0.25 for the second.

FYQW and PHAL cannot be ordered by enrichment ratio: no more than 0.25 for the first, no more than 0.25 for the second.

QRSP and EFIA cannot be ordered by enrichment ratio: no more than 0.25 for the first, no more than 0.25 for the second.

CFCT and YHHC cannot be ordered by enrichment ratio: no more than 0.25 for the first, no more than 0.25 for the second.

Going from KISY to ASFY, the enrichment ratio rises from no more than 0.25 to 0.514.

MAVS and GEIP cannot be ordered by enrichment ratio: no more than 0.25 for the first, no more than 0.25 for the second.

Compared with VSPQ, GVTW is higher in enrichment ratio: no more than 0.25 for the first, 0.962 for the second.

IQDR and LHAQ cannot be ordered by enrichment ratio: no more than 0.25 for the first, no more than 0.25 for the second.

DVKH and MLLP cannot be ordered by enrichment ratio: no more than 0.25 for the first, no more than 0.25 for the second.

YGYA and KGTK cannot be ordered by enrichment ratio: no more than 0.25 for the first, no more than 0.25 for the second.

QYKR and TCET cannot be ordered by enrichment ratio: no more than 0.25 for the first, no more than 0.25 for the second.

AWYR and YQCK cannot be ordered by enrichment ratio: no more than 0.25 for the first, no more than 0.25 for the second.

FKQW and AISD cannot be ordered by enrichment ratio: no more than 0.25 for the first, no more than 0.25 for the second.

HDFE and MKHR cannot be ordered by enrichment ratio: no more than 0.25 for the first, no more than 0.25 for the second.

PVIW and IVRA cannot be ordered by enrichment ratio: no more than 0.25 for the first, no more than 0.25 for the second.

AWSF and LPMP cannot be ordered by enrichment ratio: no more than 0.25 for the first, no more than 0.25 for the second.

VPCV and YVLC cannot be ordered by enrichment ratio: no more than 0.25 for the first, no more than 0.25 for the second.

QMVP and QSRR cannot be ordered by enrichment ratio: no more than 0.25 for the first, no more than 0.25 for the second.

FKTE and KKYC cannot be ordered by enrichment ratio: no more than 0.25 for the first, no more than 0.25 for the second.

First: VAMI
Second: DEWI
The enrichment ratio of the first is higher: 4.35 for the first, no more than 0.25 for the second.

First: SWER
Second: TKCF
The enrichment ratio of the first is lower: no more than 0.25 for the first, 10.9 for the second.

AGRS and NRHV cannot be ordered by enrichment ratio: no more than 0.25 for the first, no more than 0.25 for the second.

First: VNAI
Second: IELY
The enrichment ratio of the first is higher: 2.16 for the first, no more than 0.25 for the second.

WPID and MGIQ cannot be ordered by enrichment ratio: no more than 0.25 for the first, no more than 0.25 for the second.

EEWC and KLKK cannot be ordered by enrichment ratio: no more than 0.25 for the first, no more than 0.25 for the second.

Compared with QPSR, QSNS is higher in enrichment ratio: no more than 0.25 for the first, 0.819 for the second.

SRWN and HFWG cannot be ordered by enrichment ratio: no more than 0.25 for the first, no more than 0.25 for the second.

TPWN and ERQA cannot be ordered by enrichment ratio: no more than 0.25 for the first, no more than 0.25 for the second.

MRQI and LFDR cannot be ordered by enrichment ratio: no more than 0.25 for the first, no more than 0.25 for the second.

ITEA and HYTN cannot be ordered by enrichment ratio: no more than 0.25 for the first, no more than 0.25 for the second.

LCNL and REST cannot be ordered by enrichment ratio: no more than 0.25 for the first, no more than 0.25 for the second.

SFQF and NFSG cannot be ordered by enrichment ratio: no more than 0.25 for the first, no more than 0.25 for the second.

DPQC and PDIN cannot be ordered by enrichment ratio: no more than 0.25 for the first, no more than 0.25 for the second.

TYAY and QITM cannot be ordered by enrichment ratio: no more than 0.25 for the first, no more than 0.25 for the second.

AFGC and IKDE cannot be ordered by enrichment ratio: no more than 0.25 for the first, no more than 0.25 for the second.

GGRA and LWYG cannot be ordered by enrichment ratio: no more than 0.25 for the first, no more than 0.25 for the second.

IREG and GAPR cannot be ordered by enrichment ratio: no more than 0.25 for the first, no more than 0.25 for the second.

For SAAY, the enrichment ratio was 5.02.
